# Reference: the supplement of paper PMC12067093, “Discovery and optimisation of a covalent ligand for TRIM25 and its application to targeted protein ubiquitination” (Chemical Science, 2025)
# The full data set covers some 21,000 targets. This sample favours those with the largest changes.
# Compound: CC1Cc2ccccc2N1C(=O)C1CCCN(C1)C(=O)CCl (mixture of isomers) [TRIM25 ligand 11 (diastereomer mixture)]
# Test: probe-labelled cysteine peptide fold change vs DMSO (competition) (log2 fold change); higher = less target engagement (more negative = stronger competition)
# Settings: 50 µM; THP-1; incubation time: 4 h
# 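Also: competitive chemoproteomic profiling in live THP-1 cells with an iodoacetamide desthiobiotin (IA-DTB) probe, comparing probe-labelled peptide intensities in compound-treated cells against DMSO-treated controls.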
# UniProt Q9Y4W6, sequence (Q9Y4W6 whole entry, looked up): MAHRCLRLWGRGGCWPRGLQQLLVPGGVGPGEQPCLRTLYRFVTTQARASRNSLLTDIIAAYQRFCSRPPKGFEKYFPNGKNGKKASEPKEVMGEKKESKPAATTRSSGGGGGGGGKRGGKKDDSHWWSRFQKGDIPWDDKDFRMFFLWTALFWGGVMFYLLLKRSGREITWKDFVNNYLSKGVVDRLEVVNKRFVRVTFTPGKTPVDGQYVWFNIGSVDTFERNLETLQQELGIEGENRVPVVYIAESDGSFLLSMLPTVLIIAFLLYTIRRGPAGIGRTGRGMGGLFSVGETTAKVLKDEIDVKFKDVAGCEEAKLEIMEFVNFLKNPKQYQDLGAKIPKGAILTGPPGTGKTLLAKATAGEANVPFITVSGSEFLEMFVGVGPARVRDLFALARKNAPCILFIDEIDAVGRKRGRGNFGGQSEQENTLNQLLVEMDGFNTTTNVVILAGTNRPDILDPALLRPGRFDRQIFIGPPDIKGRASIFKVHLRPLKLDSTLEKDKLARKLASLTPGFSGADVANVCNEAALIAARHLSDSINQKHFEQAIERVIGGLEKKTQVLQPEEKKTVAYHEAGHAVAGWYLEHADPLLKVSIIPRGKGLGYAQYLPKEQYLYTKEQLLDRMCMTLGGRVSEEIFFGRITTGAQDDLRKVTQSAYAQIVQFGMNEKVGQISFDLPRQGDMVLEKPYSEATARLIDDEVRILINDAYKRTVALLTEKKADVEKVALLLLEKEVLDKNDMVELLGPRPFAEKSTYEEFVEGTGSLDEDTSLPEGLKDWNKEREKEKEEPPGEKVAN
# UniProt Q86V21, sequence (Q86V21 whole entry, looked up): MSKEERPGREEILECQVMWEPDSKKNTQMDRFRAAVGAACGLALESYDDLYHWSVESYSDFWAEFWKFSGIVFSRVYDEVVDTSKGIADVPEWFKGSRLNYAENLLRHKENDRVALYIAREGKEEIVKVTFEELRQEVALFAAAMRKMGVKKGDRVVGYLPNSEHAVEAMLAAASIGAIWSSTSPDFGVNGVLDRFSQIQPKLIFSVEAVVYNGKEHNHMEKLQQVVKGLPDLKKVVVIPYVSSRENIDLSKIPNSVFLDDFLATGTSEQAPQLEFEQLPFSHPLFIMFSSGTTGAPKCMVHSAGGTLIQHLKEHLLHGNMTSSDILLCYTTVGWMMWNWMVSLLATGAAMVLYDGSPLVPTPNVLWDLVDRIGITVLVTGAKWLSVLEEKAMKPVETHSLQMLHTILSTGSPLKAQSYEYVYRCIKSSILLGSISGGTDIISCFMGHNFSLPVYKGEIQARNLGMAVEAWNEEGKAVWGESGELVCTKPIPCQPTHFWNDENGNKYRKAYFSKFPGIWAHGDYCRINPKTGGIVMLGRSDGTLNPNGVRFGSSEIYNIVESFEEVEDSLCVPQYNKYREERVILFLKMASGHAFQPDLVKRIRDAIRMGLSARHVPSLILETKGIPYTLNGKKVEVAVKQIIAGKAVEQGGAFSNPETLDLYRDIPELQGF
# UniProt P55265, sequence (P55265 whole entry, looked up): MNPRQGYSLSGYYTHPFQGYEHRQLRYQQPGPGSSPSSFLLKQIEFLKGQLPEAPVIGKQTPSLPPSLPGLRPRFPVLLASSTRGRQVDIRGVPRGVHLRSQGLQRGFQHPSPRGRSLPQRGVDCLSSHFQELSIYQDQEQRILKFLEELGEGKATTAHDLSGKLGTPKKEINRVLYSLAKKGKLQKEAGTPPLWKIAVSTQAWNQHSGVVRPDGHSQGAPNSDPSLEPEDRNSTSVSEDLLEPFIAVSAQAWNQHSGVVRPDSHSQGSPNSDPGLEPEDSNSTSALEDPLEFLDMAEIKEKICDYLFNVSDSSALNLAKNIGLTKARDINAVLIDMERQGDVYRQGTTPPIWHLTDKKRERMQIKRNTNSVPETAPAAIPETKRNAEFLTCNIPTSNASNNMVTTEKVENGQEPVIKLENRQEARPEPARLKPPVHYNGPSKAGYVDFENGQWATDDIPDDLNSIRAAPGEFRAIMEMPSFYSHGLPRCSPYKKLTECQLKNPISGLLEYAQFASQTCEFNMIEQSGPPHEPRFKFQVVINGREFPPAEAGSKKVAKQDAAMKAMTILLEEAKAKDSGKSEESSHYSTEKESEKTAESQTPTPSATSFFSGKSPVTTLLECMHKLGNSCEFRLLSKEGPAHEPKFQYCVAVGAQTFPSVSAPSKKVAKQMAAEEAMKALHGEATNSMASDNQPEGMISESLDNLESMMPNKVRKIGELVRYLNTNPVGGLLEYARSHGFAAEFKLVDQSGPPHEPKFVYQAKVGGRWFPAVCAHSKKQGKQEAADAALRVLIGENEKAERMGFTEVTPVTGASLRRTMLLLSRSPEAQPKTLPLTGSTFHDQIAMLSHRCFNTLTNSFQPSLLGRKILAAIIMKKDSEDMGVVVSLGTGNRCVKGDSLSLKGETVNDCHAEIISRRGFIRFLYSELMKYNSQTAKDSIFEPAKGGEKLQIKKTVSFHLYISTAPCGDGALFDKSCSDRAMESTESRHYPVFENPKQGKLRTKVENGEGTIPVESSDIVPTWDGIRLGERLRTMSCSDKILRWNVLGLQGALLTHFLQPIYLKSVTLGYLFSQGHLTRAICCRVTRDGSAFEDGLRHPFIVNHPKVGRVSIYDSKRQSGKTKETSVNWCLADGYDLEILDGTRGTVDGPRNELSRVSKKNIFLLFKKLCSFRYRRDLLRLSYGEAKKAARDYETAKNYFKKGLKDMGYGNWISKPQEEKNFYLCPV
# UniProt O60488, sequence (O60488 whole entry, looked up): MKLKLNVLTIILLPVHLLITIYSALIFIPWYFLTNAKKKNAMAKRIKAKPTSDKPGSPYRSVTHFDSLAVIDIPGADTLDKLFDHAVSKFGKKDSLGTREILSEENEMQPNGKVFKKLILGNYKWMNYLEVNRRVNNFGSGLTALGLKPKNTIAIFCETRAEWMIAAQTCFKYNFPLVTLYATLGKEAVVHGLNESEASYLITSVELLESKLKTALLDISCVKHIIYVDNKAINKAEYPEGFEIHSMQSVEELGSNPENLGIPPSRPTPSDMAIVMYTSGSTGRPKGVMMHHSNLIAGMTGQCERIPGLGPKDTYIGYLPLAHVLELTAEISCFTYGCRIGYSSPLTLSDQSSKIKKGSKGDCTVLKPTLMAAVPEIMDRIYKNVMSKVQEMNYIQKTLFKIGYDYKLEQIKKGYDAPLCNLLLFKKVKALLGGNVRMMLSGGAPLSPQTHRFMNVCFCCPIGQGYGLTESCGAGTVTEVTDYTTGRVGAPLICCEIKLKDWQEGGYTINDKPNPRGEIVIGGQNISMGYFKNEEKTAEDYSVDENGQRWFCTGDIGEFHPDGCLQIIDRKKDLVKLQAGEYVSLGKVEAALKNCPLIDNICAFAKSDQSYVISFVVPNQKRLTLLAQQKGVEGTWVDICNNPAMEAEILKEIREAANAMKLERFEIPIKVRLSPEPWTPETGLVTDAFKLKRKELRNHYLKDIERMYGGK
# UniProt Q9UHX3, sequence (Q9UHX3 whole entry): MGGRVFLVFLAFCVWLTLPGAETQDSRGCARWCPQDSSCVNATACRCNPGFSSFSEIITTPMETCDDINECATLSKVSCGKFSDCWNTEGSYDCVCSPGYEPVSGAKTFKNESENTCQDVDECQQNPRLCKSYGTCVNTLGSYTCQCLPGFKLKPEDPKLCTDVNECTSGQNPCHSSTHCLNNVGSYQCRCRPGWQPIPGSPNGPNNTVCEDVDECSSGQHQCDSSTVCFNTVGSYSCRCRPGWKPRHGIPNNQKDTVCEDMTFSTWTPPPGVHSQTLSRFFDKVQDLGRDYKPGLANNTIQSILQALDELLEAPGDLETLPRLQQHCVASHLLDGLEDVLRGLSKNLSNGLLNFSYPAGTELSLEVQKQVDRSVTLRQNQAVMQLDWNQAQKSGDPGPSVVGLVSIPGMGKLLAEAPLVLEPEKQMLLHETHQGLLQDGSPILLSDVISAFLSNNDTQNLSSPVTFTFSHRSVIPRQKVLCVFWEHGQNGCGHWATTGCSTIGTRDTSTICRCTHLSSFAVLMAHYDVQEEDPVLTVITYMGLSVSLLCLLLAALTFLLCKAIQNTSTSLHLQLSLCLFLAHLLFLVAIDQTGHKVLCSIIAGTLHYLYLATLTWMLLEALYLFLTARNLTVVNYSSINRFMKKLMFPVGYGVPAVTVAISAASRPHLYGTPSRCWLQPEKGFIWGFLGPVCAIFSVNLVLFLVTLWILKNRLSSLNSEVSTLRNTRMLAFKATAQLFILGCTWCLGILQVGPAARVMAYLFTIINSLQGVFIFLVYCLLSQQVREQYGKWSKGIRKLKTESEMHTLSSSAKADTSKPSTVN
# UniProt P49748, sequence (P49748 whole entry, looked up): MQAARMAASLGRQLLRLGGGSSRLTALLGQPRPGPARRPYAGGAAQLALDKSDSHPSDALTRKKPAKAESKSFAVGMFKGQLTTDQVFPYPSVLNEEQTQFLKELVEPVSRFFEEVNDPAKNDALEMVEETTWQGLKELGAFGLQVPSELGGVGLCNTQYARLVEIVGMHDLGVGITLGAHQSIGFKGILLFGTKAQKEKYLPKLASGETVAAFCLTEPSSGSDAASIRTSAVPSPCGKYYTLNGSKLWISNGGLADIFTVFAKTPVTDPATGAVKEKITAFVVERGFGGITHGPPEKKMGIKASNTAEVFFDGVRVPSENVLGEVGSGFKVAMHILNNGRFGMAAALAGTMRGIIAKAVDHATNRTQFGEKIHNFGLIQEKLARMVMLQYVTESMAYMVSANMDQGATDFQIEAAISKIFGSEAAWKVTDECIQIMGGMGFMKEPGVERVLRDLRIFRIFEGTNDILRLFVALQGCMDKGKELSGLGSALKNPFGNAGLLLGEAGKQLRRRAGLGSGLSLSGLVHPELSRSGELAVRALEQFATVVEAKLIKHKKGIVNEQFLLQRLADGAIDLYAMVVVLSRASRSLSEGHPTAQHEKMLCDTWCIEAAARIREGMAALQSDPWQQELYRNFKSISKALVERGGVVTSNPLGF
row,Target,probe-labelled cysteine peptide fold change
1,ACSF2_Q96CM8_503_WYWTGDVATMNEQGFCK (UniProt Q96CM8),0.0552
2,AACS_Q86V21_525_FPGIWAHGDYCR (UniProt Q86V21),-0.128
3,ADAR_P55265_499_KLTECQLK (UniProt P55265),-0.203
4,AFG3L2_Q9Y4W6_402_NAPCILFIDEIDAVGRK (UniProt Q9Y4W6),0.207
5,AAK1_Q2M2I8_156_LQTGFTENEVLQIFCDTCEAVAR (UniProt Q2M2I8),-0.0648
6,A8MVJ9_A8MVJ9_153_KNCIIVPNGDNVFAAVK<|>HPF1_Q9NWY4_152_KNCIIVPNGDNVFAAVK (UniProt Q9NWY4+A8MVJ9),-0.114
7,ABL2_P42684_266_CNKPTVYGVSPIHDK (UniProt P42684),0.298
8,ACADVL_P49748_477_LFVALQGCMDK (UniProt P49748),-0.0345
9,ACTN1_P12814_180_DGLGFCALIHR (UniProt P12814),0.0544
10,ACTN4_O43707_173_EGLLLWCQR<|>ACTN1_P12814_154_EGLLLWCQR (UniProt P12814+O43707),0.169
11,ADNP_Q9H2P0_514_YLPTDTLLNHMLIHGLSCPYCR (UniProt Q9H2P0),0.0384
12,ADGRE2_Q9UHX3_328_LQQHCVASHLLDGLEDVLR (UniProt Q9UHX3),0.0528
13,AGA_P20933_286_RGEDPTIACQK (UniProt P20933),0.169
14,ABHD10_Q9NUJ1_239_EAEHHCLLHSPIPVNCPIR (UniProt Q9NUJ1),0.158
15,ACSL4_O60488_303_GVMMHHSNLIAGMTGQCER (UniProt O60488),-0.0909
